Measured values published in PubChem BioAssay AID485364 (National Center for Advancing Translational Sciences (NCATS), 2010).
The whole screen tested about 360,000 compounds, of which about 11,000 (3.1%) were called active. This list was built around the results that the source calls inconclusive (neither active nor inactive); the mix of calls is not that of the screen. Calls follow the shape of the dose curve; as a rule, active = well fitted inhibition curve with a large enough effect; inconclusive = small, poorly fitted or top-dose-only effect; inactive = no such curve, though single readings can be large or run the other way. Potencies of inconclusive entries are left out as doubtful fits.

Molecular target: Schistosoma mansoni thioredoxin glutathione reductase (TGR) (UniProt Q962Y6)
Test: qHTS Assay for the Inhibitors of Schistosoma Mansoni Peroxiredoxins; also: nearly all actives have a fitted effect of over 60% in size
Settings: purified TGR, DTNB reduction, TNB absorbance 405 nm; activity change, negative = inhibition: at 114 µM (top of the series) unless noted
How it was run: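 Kinetic colorimetric format: TGR-catalysed, NADPH-driven DTNB reduction monitored via TNB absorbance. Enzyme dispensed at 20 nM; compound exposure 15 min at room temperature before reaction start.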
% is scaled to controls: 0 for no effect and ±100 for the full control effect; potency is read from the fitted curve at half-maximal effect; tags tell the direction and shape of the fitted curve.

| Structure (SMILES) | Potency | activity change, negative = inhibition |
| --- | --- | --- |
| COc1ccc(COC(=O)c2ccc3c(=O)n4c(nc3c2)CCC4)cc1F | inconclusive [inhibitor, single point] | – |
| CC1CCN(C(=O)N[C@@H](Cc2ccccc2)C(=O)O)CC1 | inconclusive [inhibitor, full curve, poor fit] | – |
| Cc1cc(C)c2c(n1)SCCN2C(=O)Nc1ccc(C(=O)Nc2cc(Cl)ccc2C)cc1 | – | inactive: 3.97% |
| Cc1ccc(N2CC(C(=O)NCCN3CCOCC3)CC2=O)cc1C (stereo unspecified) | – | inactive: -0.831% |
| CCc1ccc(NC2=CC(=O)CC(c3ccco3)C2)cc1 (stereo unspecified) | inconclusive [inhibitor, full curve] | – |
| N#Cc1nc(-c2ccccc2F)oc1NCCN1CCOCC1 | inconclusive [inhibitor, full curve] | – |
| C#CCOCCOCCOCCNc1nc(N2CCN(C(=O)CCCCCCCCCCNC(=O)[C@H](CCCCN)n3cc(C[C@@H](C)CC)nn3)CC2)nc(N2CCN(C(=O)CCCCCCCCCCNC(=O)[C@H](CCCN=C(N)N)n3cc(C[C@@H](C)CC)nn3)CC2)n1 | inconclusive [inhibitor, partial curve] | – |
| O=C(NCC1CCCO1)c1cc2ccccc2oc1=O (stereo unspecified) | – | inactive: 46.5% |
| COC(=O)c1ccc(CO/N=C2\CCCc3nonc32)cc1 | – | inactive: 4.48% |
| Cc1cc(S(=O)(=O)NCc2ccccc2)ccc1OCC(=O)NCc1ccccn1 | – | inactive: 0.835% |
| Cc1ccc(C(C)(C)C)cc1S(=O)(=O)Nc1nc2ccccc2nc1Cl | inconclusive [inhibitor, partial curve] | – |
| COc1ccc(CN(CCC(c2ccccc2)c2ccc(OC(C)C)cc2)C(=O)CCl)cc1OC (stereo unspecified) | inconclusive [inhibitor, full curve, poor fit] | – |
| CCOc1ccccc1N1C(=O)CC(Sc2n[nH]c(-c3ccccc3)n2)C1=O (stereo unspecified) | active: 0.562 µM | – |
| Cc1ccc(CN2CCNC(=O)C2CC(=O)N(C)Cc2cnccn2)cc1 (stereo unspecified) | inconclusive [inhibitor, partial curve, poor fit] | – |
| COc1ccc([C@H]2CC(=O)C=C(c3cccc(CO)c3)C2)cc1 | inconclusive [inhibitor, single point] | – |
| c1cc2c3c(cccc3c1)NC1(CCCCC1)N2 | inconclusive [inhibitor, full curve] | – |
| O=[N+]([O-])c1cccc(-c2ccc(C(=S)N3CCN(c4ccc(F)cc4)CC3)o2)c1 | inconclusive [inhibitor, partial curve] | – |
| COc1cc(C(=O)N2CCSCC2)ccc1OC1CCN(C(C)=O)CC1 | inconclusive [inhibitor, partial curve] | – |
| O=C(CC1C(=O)NCCN1Cc1ccc(F)cc1)NC1CCCCCCC1 (stereo unspecified) | inconclusive [inhibitor, partial curve] | – |
| O=[N+]([O-])c1ccc(CN2CCN(c3ccccc3)CC2)o1 | inconclusive [inhibitor, partial curve] | – |
| Cc1c(C(=O)Nc2ccc(F)cc2)nnn1-c1cccc(C(F)(F)F)c1 | – | inactive: 1.13% |
| O=C(NCC1(c2ccccc2)CCCC1)c1ccc(Br)o1 | – | inactive: -9.78% |
| Cc1nc2ccccc2c(=O)n1/N=C/c1ccc(O)c(O)c1O | active: 44.7 µM | – |

| Structure (SMILES) | Potency | activity change, negative = inhibition |
| --- | --- | --- |
| Cc1ccc(O)c(N)c1 | inconclusive [inhibitor, partial curve] | – |
| Cc1ccc(-c2nc(COC(=O)C3=NN(c4ccccc4)C(=O)CC3)cs2)cc1 | – | inactive: -4.58% |
| CCOCCCNC(=S)Nc1ccc(S(N)(=O)=O)cc1 | inconclusive [inhibitor, partial curve] | – |
| Oc1ccc(CNc2cccc(C(F)(F)F)c2)c2cccnc12 | active: 0.316 µM | – |
| NC(=O)c1nsc(C(=O)N(c2ccccc2)C(C(=O)NC2CCCCC2)c2ccc(O)cc2)c1N (stereo unspecified) | inconclusive [inhibitor, partial curve] | – |
| C[C@@]12CCC3[C@@](CCC4[C@@]3(C)CCC[C@@]4(C)C(=O)Nc3ccc(Cl)cc3)(CC1=O)C2 (stereo partly specified) | inconclusive [inhibitor, partial curve] | – |
| COC(=O)c1c(N2C(=O)CC(Sc3ncccc3C(=O)O)C2=O)sc(C)c1C (stereo unspecified) | active: 20 µM | – |
| Cc1ccc(OCC(=O)Nc2ccc(N3CCCC3)cc2)cc1C | inconclusive [inhibitor, partial curve] | – |
| O=C(Nc1ccccc1)C(O)C(O)C(=O)Nc1ccccc1 (stereo unspecified) | – | inactive: 1.61% |
| Cc1nn(-c2ccc(N3CCCC3)nn2)c(C)c1CCC(=O)NCc1ccccc1F | inconclusive [inhibitor, single point] | – |
| Cc1cc(C)c2nc(N(CCCN(C)C)C(=O)c3ccc(S(=O)(=O)N4CC(C)OC(C)C4)cc3)sc2c1 (stereo unspecified) | – | inactive: 2.07% |
| CCCN(CC1CC1)C(=O)CSc1nnc(-c2ccco2)n1N | active: 50.1 µM | – |
| N#CC1=C(N)Oc2n[nH]c(-c3cccs3)c2C1c1ccco1 (stereo unspecified) | active: 31.6 µM | – |
| CCCCNc1nc(Oc2ccc(OCCC)nn2)nc(N(C)C)n1 | inconclusive [inhibitor, single point] | – |
| Cc1ccc(N(C(=O)Cc2cccs2)C(C(=O)NC2CCCC2)c2ccncc2)cc1 (stereo unspecified) | – | inactive: 20.5% |
| S=C(NCc1ccco1)Nc1cccc(Cl)c1 | inconclusive [inhibitor, partial curve, poor fit] | – |
| CCN(CC)c1ccc(NC(=O)c2cnc3ccccn3c2=O)c(C)c1 | – | inactive: -24.8% |
| CC(=O)N1CCc2c(sc(NC(=O)CS(=O)(=O)c3ccc(F)cc3)c2C(N)=O)C1 | inconclusive [inhibitor, partial curve] | – |
| CC(C)CN1C(=O)CC(Sc2ccccc2C(=O)O)C1=O (stereo unspecified) | inconclusive [inhibitor, partial curve, poor fit] | – |
| CCCCN1C(=O)NC(=O)C2(Cc3cc(C)ccc3N(C)C2)C1=O (stereo unspecified) | inconclusive [inhibitor, partial curve] | – |
| Clc1ccc(-c2cn3c(n2)-c2ccccc2C3)cc1Cl | – | inactive: -0.617% |
| CCOc1ccc2[nH]c3c(NCCN(C)C)ncnc3c2c1 | – | inactive: 4.8% |
| CC(CCc1ccco1)NC(=O)Nc1cccc(F)c1 (stereo unspecified) | – | inactive: -32.1% |
